Laboratory results from the supplement of paper PMC8512760.
Counter-ions that a name gives are not always drawn. The list shows a part of the results. Many values rest on one well or one pass, so single values are uncertain.

system: HCC-1143; assay: cell viability relative to vehicle (% of vehicle); basal-like triple-negative breast cancer lines; higher = less cytotoxic; conditions: 10 µM; 72 h
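Note: stably firefly luciferase-GFP labeled cells in 96-well plates, viability read as luciferase photon flux after d-luciferin addition, treated wells normalized to vehicle wells, single-dose high-throughput screen.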

SMILES | cell viability
C[N+]1(C)CCCC(OC(=O)C(O)(c2ccccc2)c2ccccc2)C1.[Br-] (centres undefined) [Mepenzolate Bromide] | 113
OC(c1ccccc1)(c1ccccc1)C1CCNCC1 [Azacyclonol] | 71.8
CCC1(c2cccc(O)c2)CCCCN(C)C1.Cl (centres undefined) [Meptazinol HCl] | 81.2
O=S(=O)(F)Cc1ccccc1 | 62.5
Br.CN1C2CC(OC(=O)C(CO)c3ccccc3)CC1C1OC12 (centres undefined) [Scopolamine hydrobromide] | 101
CC(C)c1c(CN(C)C(C)Cc2ccccc2)n(C)n(-c2ccccc2)c1=O (centres undefined) [Famprofazone] | 127
O=C1CCC2(O)C3Cc4ccc(O)c5c4C2(CCN3CC2CC2)C1O5 (centres undefined) [Naltrexone] | 94.6
Cc1cc(O)ccc1Cl [Chlorocresol] | 67.5
CN1[C@@H]2C[C@@H](O)C[C@H]1[C@@H]1O[C@@H]12 [Scopine] | 111
CCC1(C)CC(=O)NC(=O)C1 [Bemegride] | 102
Cc1cccc(C(C)c2cnc[nH]2)c1C.Cl (centres undefined) [Dexmedetomidine HCl] | 87.8
CC12CCC3C(CC=C4CC(O)CCC43C)C1CCC2=O (centres undefined) [Dehydroepiandrosterone (DHEA)] | 94.2
CN1C2CCC1CC(OC(=O)C(CO)c1ccccc1)C2 (centres undefined) [Hyoscyamine] | 79.6
CC(=Cc1csc(C)n1)C1CC2OC2(C)CCCC(C)C(O)C(C)C(=O)C(C)(C)C(O)CC(=O)O1 (centres undefined) [Epothilone B (EPO906, Patupilone)] | 96.6
Cc1cccc(C)c1NC(=O)CN1CCCC1=O [Nefiracetam] | 79.6
CCOC(=O)c1cncn1C(C)c1ccccc1.Cl (centres undefined) [Etomidate hydrochloride] | 101
Br.COC(=O)C1=CCCN(C)C1 [Arecoline hydrobromide] | 79.5

SMILES | cell viability
CCCC[N+]1(C)[C@@H]2C[C@@H](OC(=O)[C@H](CO)c3ccccc3)C[C@H]1[C@@H]1O[C@@H]12 (some centres undefined) [Scopolamine butylbromide] | 99.9
C[N+](C)(C)CCCCCCCCCC[N+](C)(C)C.[Br-].[Br-] [Decamethonium Bromide] | 76.7
CN(C)C1C(=O)C(C(N)=O)=C(O)C2(O)C(=O)C3=C(O)c4c(O)cccc4C(C)(O)C3C(O)C12.O.O (centres undefined) [Oxytetracycline Dihydrate] | 74.8
Cl.NCC1(CC(=O)O)CCCCC1 [Gabapentin HCl] | 65.4
CCCCCCCCCCCCCCCC[N+](C)(C)C.[Br-] [Cetrimonium Bromide (CTAB)] | 23.3
Cn1c(COP(=O)(NCCBr)NCCBr)cnc1[N+](=O)[O-] | 118
CC(C)OC(=O)[C@H](C)N[P@](=O)(CO[C@H](C)Cn1cnc2c(N)ncnc21)Oc1ccccc1 | 125
O=P1(NCCCl)OCCCN1CCCl (centres undefined) [Ifosfamide] | 86
Cc1c(N)nc(C(CC(N)=O)NCC(N)C(N)=O)nc1C(=O)NC(C(=O)NC(C)C(O)C(C)C(=O)NC(C(=O)NCCc1nc(-c2nc(C(=O)NCCC[S+](C)C)cs2)cs1)C(C)O)C(O[C@@H]1O[C@@H](CO)[C@@H](O)[C@H](O)[C@@H]1O[C@H]1O[C@H](CO)[C@@H](O)[C@H](OC(N)=O)[C@@H]1O)c1cnc[nH]1 (some centres undefined) [Bleomycin Sulfate] | 124
CCC[C@H](C)[C@@]1(CC)C(=O)N=C([O-])NC1=O.[Na+] [Pentobarbital sodium salt] | 65.2
CN(C)C(=O)C(CCN1CCC(O)(c2ccc(Cl)cc2)CC1)(c1ccccc1)c1ccccc1.Cl [Loperamide HCl] | 97.5
CC(C)N(CCNC(=O)CN1CCCC1=O)C(C)C [Pramiracetam] | 124
CC12CC(=CO)C(=O)CC1CCC1C2CCC2(C)C1CCC2(C)O (centres undefined) [Oxymetholone] | 99.7
CN(C)C1C(=O)C(C(N)=O)=C(O)C2(O)C(=O)C3=C(O)c4c(O)cccc4C(C)(O)C3C(O)C12 (centres undefined) [Oxytetracycline (Terramycin)] | 85.4
O=c1cccc2n1C[C@@H]1CNC[C@H]2C1 [Cytisine] | 75.9
C[N+](C)(C)CC(=O)O.[Cl-] [Betaine hydrochloride] | 132
C#CC1(O)C=CC2C3CCC4=CC(=O)CCC4C3CCC21CC (centres undefined) [Gestodene] | 74.8
